To fix the notation:
B1: Caulobacter ParB omega fusion; a variant is named by its letters at X, in order, B8GW30 (parent)
chain: MESVVVGEPGMSEGRRGLGRGLSALLGEVDAAPAQAPGEQLGGSREAPIEILQRNPDQPRRTFREEDLEDLSNSIREKGVLQPILVRPSPDTAGEYQIVAGERAWRAAQRAGLKTVPIMVRELDDLAVLEIGIIENVQRADLNVLEEALSYKVLMEKFERTQENIAQTIGKSXSHVANXMRLLXLPDEVQSYLVSGELTAXHARAIAAAADPVALAKQIIEGGLSVRETEALARKAPNLSAGKSKGGRPPRVKDTDTQALESDLSSVLGLDVSIDHRGSTGTLTITYATLEQLDDLCNRLTRGI

Experimental findings from a collection of fitness landscapes (doi:10.1016/j.celrep.2020.107928) are described below.

In all, about 81,000 sequences were measured (“one-hybrid fitness for binding NBS DNA”: median about -0.1, highest 2% from about 0.36 on). The list shows a part of the results. Where only a bound is given, the exact number is not on record here.

The variants in the test derive from B1. In words: one-hybrid fitness for binding NBS DNA (the Noc-binding site; scaled: cognate 1, non-cognate 0); higher = stronger binding. The following applies: with NBS DNA site. The method, boiled down: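 On M9-minus-histidine containing 0.1 mM IPTG and 5 mM 3-AT, E. coli USO cells with a HIS3 reporter, site 19 bp from the promoter, grew 48 hours at 37°C to select Caulobacter ParB libraries randomised at four specificity codons. Plasmids from before and after were Illumina-sequenced, with three replicate libraries pooled and variants under 10 reads left out. Fitness is the log change in variant-to-wild-type read ratio, rescaled against cognate and non-cognate.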
Take RPAV: the “one-hybrid fitness for binding NBS DNA” value is at most 0.2. Take SNMM: the “one-hybrid fitness for binding NBS DNA” value is at most 0.2.

Regarding ALEV, the “one-hybrid fitness for binding NBS DNA” value was at most 0.2. The figure for SSAC is at most 0.2; for IFVR it is at most 0.2; for VVQS it is at most 0.2. The result for QHMA reads at most 0.2; that for RYTF, at most 0.2; that for LVIG, at most 0.2. The figure for ENIM is at most 0.2; for LVIS it is at most 0.2. Consider VHHF, for which the “one-hybrid fitness for binding NBS DNA” value is at most 0.2.

For the variant CMPQ, the “one-hybrid fitness for binding NBS DNA” value is at most 0.2. The figure for GKHR is at most 0.2; for LKQI it is at most 0.2; for VTTE it is at most 0.2. The figure for QLEV is at most 0.2; for REKW it is at most 0.2.

As for THFS, the “one-hybrid fitness for binding NBS DNA” value is at most 0.2. HHAV: the “one-hybrid fitness for binding NBS DNA” value is at most 0.2. The figure for IFMS is at most 0.2; for QNTG it is at most 0.2.

Regarding LRYE, the “one-hybrid fitness for binding NBS DNA” value was at most 0.2. Consider HQAK, for which the “one-hybrid fitness for binding NBS DNA” value is at most 0.2.

In the case of RWDY, the “one-hybrid fitness for binding NBS DNA” value was at most 0.2. The figure for RMEQ is at most 0.2; for FAIA it is at most 0.2. The result for DMNR reads at most 0.2. The figure for QLPF is at most 0.2; for LSGC it is at most 0.2; for SYST it is at most 0.2. As for GYLR, the “one-hybrid fitness for binding NBS DNA” value is at most 0.2. The figure for RSFN is at most 0.2. The result for SQAL reads at most 0.2. The figure for QCKW is 0.324; for EWPV it is at most 0.2. In the case of GYTC, the “one-hybrid fitness for binding NBS DNA” value was at most 0.2. The result for SLKC reads at most 0.2. The result for HMGL reads at most 0.2. The result for YKYG reads at most 0.2. As for IIPS, the “one-hybrid fitness for binding NBS DNA” value is at most 0.2. The result for QMNS reads 0.458; that for MGRT, at most 0.2; that for SYIF, at most 0.2. For LTYS, the “one-hybrid fitness for binding NBS DNA” value was at most 0.2. With NPED, the “one-hybrid fitness for binding NBS DNA” value is at most 0.2. As to TWCR, the “one-hybrid fitness for binding NBS DNA” value was at most 0.2.

As to PALK, the “one-hybrid fitness for binding NBS DNA” value is at most 0.2. The figure for QQCW is at most 0.2; for TFLS it is at most 0.2; for AKRY it is at most 0.2. The result for LSTN reads at most 0.2. As for LTKG, the “one-hybrid fitness for binding NBS DNA” value was at most 0.2. The figure for HVHG is at most 0.2; for IRCG it is at most 0.2.

With RHDK, the “one-hybrid fitness for binding NBS DNA” value was at most 0.2.

For the variant AGYR, the “one-hybrid fitness for binding NBS DNA” value is at most 0.2.

For the variant TRQW, the “one-hybrid fitness for binding NBS DNA” value was at most 0.2. Take HNYP: the “one-hybrid fitness for binding NBS DNA” value was at most 0.2.

On to LRTN, for which the “one-hybrid fitness for binding NBS DNA” value was at most 0.2. For FYGR, the “one-hybrid fitness for binding NBS DNA” value amounted to 0.203. The figure for TWSV is at most 0.2.

Take INHF: the “one-hybrid fitness for binding NBS DNA” value was at most 0.2. The figure for RIAA is at most 0.2; for QKIS it is 0.278.

As to CPTP, the “one-hybrid fitness for binding NBS DNA” value was at most 0.2. The result for WCNV reads at most 0.2; that for DVTF, at most 0.2. As to FLKD, the “one-hybrid fitness for binding NBS DNA” value was at most 0.2.

For LYPQ, the “one-hybrid fitness for binding NBS DNA” value is at most 0.2. The result for YGFC reads at most 0.2. The result for QIGD reads at most 0.2. The figure for QTSW is at most 0.2; for AARW it is at most 0.2; for QYVI it is at most 0.2.

On to RHES, for which the “one-hybrid fitness for binding NBS DNA” value turned out to be 0.203. As to GLMC, the “one-hybrid fitness for binding NBS DNA” value is at most 0.2.

TNSH: the “one-hybrid fitness for binding NBS DNA” value is at most 0.2. On to RTQA, for which the “one-hybrid fitness for binding NBS DNA” value is 0.294. RSIM: the “one-hybrid fitness for binding NBS DNA” value was at most 0.2. The figure for INTR is at most 0.2; for FRTR it is at most 0.2; for RMCK it is at most 0.2.

For the variant DTKH, the “one-hybrid fitness for binding NBS DNA” value is at most 0.2. The figure for TDLQ is at most 0.2; for RATC it is at most 0.2; for GSLV it is at most 0.2. The figure for GFTY is at most 0.2; for MGFC it is at most 0.2. As for TGAT, the “one-hybrid fitness for binding NBS DNA” value is at most 0.2.

As to PKTT, the “one-hybrid fitness for binding NBS DNA” value is at most 0.2. Regarding IAQN, the “one-hybrid fitness for binding NBS DNA” value is at most 0.2. Take RHVW: the “one-hybrid fitness for binding NBS DNA” value was at most 0.2. In the case of DSTD, the “one-hybrid fitness for binding NBS DNA” value is at most 0.2.

For IAGY, the “one-hybrid fitness for binding NBS DNA” value was at most 0.2. The result for QPLE reads at most 0.2; that for AHCH, at most 0.2. The result for RETA reads at most 0.2; that for LQPV, at most 0.2; that for RNYH, at most 0.2. On to ANPS, for which the “one-hybrid fitness for binding NBS DNA” value is at most 0.2. The figure for QHLD is at most 0.2; for KIGF it is at most 0.2. With LQSM, the “one-hybrid fitness for binding NBS DNA” value was at most 0.2. In the case of NLKH, the “one-hybrid fitness for binding NBS DNA” value is at most 0.2. The figure for IVSW is at most 0.2; for RKAA it is 0.335; for AIAT it is at most 0.2.

Consider KHEV, for which the “one-hybrid fitness for binding NBS DNA” value is at most 0.2. The result for DRKC reads at most 0.2; that for VRMG, at most 0.2. The result for PYGH reads at most 0.2; that for RSKP, at most 0.2; that for PHMG, at most 0.2. The result for RLIA reads at most 0.2; that for PSDM, at most 0.2. As to EIHH, the “one-hybrid fitness for binding NBS DNA” value is at most 0.2.

As to HLLW, the “one-hybrid fitness for binding NBS DNA” value is at most 0.2. The figure for AVPY is at most 0.2. The result for MVRE reads at most 0.2. The figure for MLHM is at most 0.2; for SCGS it is at most 0.2; for FSLV it is at most 0.2. Take PLAM: the “one-hybrid fitness for binding NBS DNA” value is at most 0.2. The result for AFID reads at most 0.2; that for MHQY, at most 0.2. Take LNAL: the “one-hybrid fitness for binding NBS DNA” value was at most 0.2. For the variant FRRY, the “one-hybrid fitness for binding NBS DNA” value was at most 0.2. The result for VGFT reads at most 0.2; that for HHFT, at most 0.2. The result for AISM reads at most 0.2; that for FFGT, at most 0.2. The figure for RPVA is at most 0.2. Turning to MEHI, the “one-hybrid fitness for binding NBS DNA” value is at most 0.2.

Turning to GYHM, the “one-hybrid fitness for binding NBS DNA” value is at most 0.2. As for ESMG, the “one-hybrid fitness for binding NBS DNA” value is at most 0.2. The figure for DNVG is at most 0.2.

In the case of TQWD, the “one-hybrid fitness for binding NBS DNA” value was at most 0.2.

As for DSEW, the “one-hybrid fitness for binding NBS DNA” value was at most 0.2. Take YRVN: the “one-hybrid fitness for binding NBS DNA” value is at most 0.2.

As for LTTW, the “one-hybrid fitness for binding NBS DNA” value is at most 0.2. KAQS: the “one-hybrid fitness for binding NBS DNA” value was at most 0.2. Turning to REPK, the “one-hybrid fitness for binding NBS DNA” value was at most 0.2.

Regarding FLTT, the “one-hybrid fitness for binding NBS DNA” value is at most 0.2. The result for QVKL reads at most 0.2; that for TIFW, at most 0.2; that for RAQQ, at most 0.2.

As for RMTC, the “one-hybrid fitness for binding NBS DNA” value is at most 0.2. The figure for VMNP is at most 0.2; for QDHE it is at most 0.2. For the variant TPAS, the “one-hybrid fitness for binding NBS DNA” value is at most 0.2. Regarding QTSA, the “one-hybrid fitness for binding NBS DNA” value was 0.397.

With MCMS, the “one-hybrid fitness for binding NBS DNA” value is at most 0.2.
